Patent US20250281631A1, “ANTIBODY-DRUG CONJUGATES AND PREPARATION METHODS AND USE THEREOF” (SICHUAN KELUN-BIOTECH BIOPHARMACEUTICAL CO., LTD, priority 2022, published 2025)

B1: 47A3-A-07-A: ADC of antibody 47A3E3-hIgG1 conjugated to drug-linker A-07-A, DAR 6.27 (conjugate)
heavy: EVQLQESGPGLVKPSQTLSLTCAISGDSVSSSQSTWNWIRQSPSRGLEWLGRTFYRSRWYNDYALSMKSRITINPDTSKNQFSLQLNPVTPEDTAVYYCARDTYYYGSGGFDYWGQGSRVTVSSASTKGPSVFPLAPSSKSTSGGTAALGCLVKDYFPEPVTVSWNSGALTSGVHTFPAVLQSSGLYSLSSVVTVPSSSLGTQTYICNVNHKPSNTKVDKRV[in this place human IgG1 Fc]
light: DIQMTQSPSTLSASVGDRVTITCRASQSLSRWLAWYQQKPEKAPKLLIYKASSLESGVPSRFSGSGSGTEFTLTISTLQPDDFATYYCQQYKNYYSFGQGTKLEIKRTVAAPSVFIFPPSDEQLKSGTASVVCLLNNFYPREAKVQWKVDNALQSGNSQESVTEQDSKDSTYSLSSTLTLSKADYEKHKVYACEVTHQGLSSPVTKSFNRGEC
B2: 100H7-A-07-A (conjugate)
heavy: EVQLVESGGGVVLPGRSLRLSCAASGFTFSRNAMHWVRQAPGKGLEWVAVIWHDGSNKYYGDSVKGRFTISRDNSKNTLYLQMDSLTAEDTAVYYCARDRGASDFRGQGTLVTVSSASTKGPSVFPLAPSSKSTSGGTAALGCLVKDYFPEPVTVSWNSGALTSGVHTFPAVLQSSGLYSLSSVVTVPSSSLGTQTYICNVNHKPSNTKVDKRV[in this place human IgG1 Fc]
light: DIQMTQSPSTLSASVGDRVTITCRASQSINNWLAWYQQKPEKAPKLLIYKASSLESGVPSRFSGSGSGTEFTLTISSLQPDDFATYYCQQYNSYSLTFGGGTKVEIKRTVAAPSVFIFPPSDEQLKSGTASVVCLLNNFYPREAKVQWKVDNALQSGNSQESVTEQDSKDSTYSLSSTLTLSKADYEKHKVYACEVTHQGLSSPVTKSFNRGEC

Columns and labels:
KPL-4 cells = assay: Cell affinity of anti-human HER3 antibodies and ADCs by flow cytometry; assay type: binding; conditions: Table 32
Excerpt: (§1) 1. Detection of Cell Affinity of Anti-Human HER3 Antibodies and their Drug Conjugates
(§2) The affinity of anti-human HER3 ADC to MDA-MB-453, NCI-H358, KPL-4, and A431 cells was detected by flow cytometry (Beckman, model Cytoflex).
(§3) Adherent MDA-MB-453, NCI-H358, KPL-4, A431 cells were digested with Tryple (manufacturer: Gibco) solution, counted, and an appropriate amount of the cells were taken, washed twice with 1×PBS, resuspended in 1% BSA in PBS solution, and then transferred to a 96-well sharp-bottom plate, 50 μl per well; candidate antibodies and drug conjugates thereof were diluted with 1% BSA in PBS solution by 3-fold or 2.5-fold serial dilution starting from 5 μg/mL, and then 50 μl of the diluted antibody or antibody-drug conjugate was added to the sharp-bottom plate containing the cells, and incubation was carried out at 4° C. for 40 minutes; the cells were washed twice with PBS, then added with 50 μl of diluted secondary antibody to each well, mixed, and incubated at 4° C. for 30 minutes; the cells were washed with PBS twice, then resuspended in 400 μl of PBS and detected by flow cytometry. Data processing: the average fluorescence signal values were exported, and then input into GraphPad Prism 6 software to calculate EC50. The results were shown in Table 32 and FIGS. 1A, 1B, 1C, and 1D. […] Moreover, when the naked antibody was formed into ADC through conjugation, the affinity to cells was less affected, and the affinity of 22B6 formed into ADC by conjugation was still the highest.

NCI-H358 cells = assay: as above; assay type: binding; conditions: Table 32
Excerpt: as §1, §2, §3

A431 cells = assay: as above; assay type: binding; conditions: Table 32
Excerpt: as §1, §2, §3

[1] = tested on: NCI-N87 gastric cancer xenograft model; assay: In vivo drug efficacy in NCI-N87 CDX model; set-up: species or system female BALB/c-nu mice; conditions: 3 mg/kg; for T/C / TGI / Tumor volume (x ± SEM): tail vein injection Day 0, 4, 7, Day 32; for growth inhibition rate (TGI): tail vein, Day 0, Day 4 and Day 7, Day 32
Excerpt: The following formula was used to calculate the tumor growth inhibition rate TGI (%), which was used to evaluate the tumor inhibitory efficacy:
[formula] • wherein, • VTend represented a mean value of tumor volume at the end of the experiment in a treatment group • VTstart represented a mean value of tumor volume at the beginning of the administration in a treatment group • VCend represented a mean value of tumor volume at the end of the experiment in the negative control group • VCstart represented a mean value of tumor volume at the beginning of the administration in the negative control group
6. Detection of In Vivo Drug Efficacy of Anti-Human HER3 Antibody-Drug Conjugates in N87 Model
NCI-N87 cells were cultured at 37° C. with 5% CO2 in RPMI1640 medium containing 10% fetal bovine serum. The NCI-N87 cells in the exponential growth phase were collected, resuspended in PBS to an appropriate concentration, and inoculated subcutaneously in female BALB/c-nu mice to establish a human gastric cancer model. When the average volume of tumor was about 120 mm^3, the animals are randomly divided into groups according to the tumor size, including: vehicle control group, hIgG1-A-07-A 3 mg/kg group, ADC 22B6-A-07-A-1 3 mg/kg group, ADC 47A3-A-07-A 3 mg/kg group, and ADC 100H7-A-07-A 3 mg/kg group. All animals were administered via injection through tail vein on Day 0, Day 4 and Day 7, and 3 times in total. After administration, the tumor diameter was measured twice a week with a vernier caliper, and the tumor volume was calculated according to the following formula: V=0.5 a×b^2, wherein a and b represented the long and short diameters of tumor, respectively, and the death of animals was observed and recorded every day.

Molecule	EC50 cell affinity (KPL-4 cells) [µg/mL]	EC50 cell affinity (NCI-H358 cells) [µg/mL]	EC50 cell affinity (A431 cells) [µg/mL]	T/C [1] [%]	TGI [1] [%]	Tumor volume (x ± SEM) [1] [mm^3]	inhibitor effect on the tumor growth ([1]; result in words)	growth inhibition rate (TGI) [1] [%]
B1	0.1246	0.1576	0.0656	60.12	47.24	468.82 ± 36.48	significant inhibitor effect on the tumor growth	47.24
B2	0.2744	0.4274	0.2659	69.52	36.04	542.62 ± 58.59		36.04
